# Molecular target: T1, human DLL3 on cells (human, UniProt Q9NYJ7 27-618)
# T1 sequence (looked up): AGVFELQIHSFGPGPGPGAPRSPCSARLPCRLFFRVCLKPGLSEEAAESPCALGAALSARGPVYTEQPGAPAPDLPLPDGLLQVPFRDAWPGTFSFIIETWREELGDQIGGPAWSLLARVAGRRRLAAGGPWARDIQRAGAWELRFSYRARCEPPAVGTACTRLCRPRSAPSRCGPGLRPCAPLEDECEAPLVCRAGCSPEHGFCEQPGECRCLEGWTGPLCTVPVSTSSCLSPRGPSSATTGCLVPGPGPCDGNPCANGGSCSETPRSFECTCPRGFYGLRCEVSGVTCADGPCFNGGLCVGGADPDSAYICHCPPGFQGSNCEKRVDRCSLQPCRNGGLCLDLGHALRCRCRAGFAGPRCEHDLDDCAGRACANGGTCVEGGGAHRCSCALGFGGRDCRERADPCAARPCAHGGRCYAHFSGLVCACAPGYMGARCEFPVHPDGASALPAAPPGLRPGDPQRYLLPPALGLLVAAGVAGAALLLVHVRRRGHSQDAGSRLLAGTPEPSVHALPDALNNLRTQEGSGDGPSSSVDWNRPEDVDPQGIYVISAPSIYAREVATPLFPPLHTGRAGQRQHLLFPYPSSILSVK
# Test: cell-based or functional assay
row,Binder,HEK-DLL3 Internalization FOI [FOI]
1,Clone 186 VHH-Fc (wildtype Fc/modified hinge) (Fc fusion) QVQVVESGGGLVQPGGSLTLSCAASGFDFSTYTVNWYRQAPGKEREKVARISSTGTTTNYANSAKGRFTLSRDNAKNRVYLQMNNLKPEDTAVYFCNFERFDSNYWGQGTQVTVSS[human IgG1 Fc with C220S (EU numbers) not written out],7.72
2,Clone 24 VHH-Fc (wildtype Fc/modified hinge) (Fc fusion) QVQYVESGGGLVQPGGSLRLSCAASGFTFSSYRINWYRQPPGKGRELVGSITDTGSTNYADSVKGRFTISRDNAKNTVYLQMSSLKPEDTAVYYCRAPTIAAYWGQGTQVTVSS[human IgG1 Fc with C220S (EU numbers) not written out],6.67
3,Clone 107 VHH-Fc (wildtype Fc/modified hinge) (Fc fusion) QVQLVESGGGLVQAGDSLRLSCVASDRTFSSYAVGWFRQAPGKEREFVAAISWNGGRTLYTDSVTGRFTISRDNAKSTVYLQMNGLKPEDTAVYYCAARPAAPTRRLEYDYWGQGTQVTVSS[human IgG1 Fc with C220S (EU numbers) not written out],8.14
4,Clone 100 VHH-Fc (wildtype Fc/modified hinge) (Fc fusion) QVQLVESGGGSVQPGGSLRLSCAASGIVFNSDVMGWYRQVPGKPRELVATITGGGSTNYATSVKGRFTISRDNAKNTVYLQMNSLRPEDTAVYYCNGRRGDSMLAFWAQGTQVTVSS[human IgG1 Fc with C220S (EU numbers) not written out],8.78
5,Clone 126 VHH-Fc (wildtype Fc/modified hinge) (Fc fusion) QVQLVESGGGMVQPGGSLRLSCAASGITFSMYSMSWYRQPPGKQRELVAATTTFGSTNYADSVKGRFTISRDNAKNTVYLQMNSLKPEDTAVYLCNARFTSEEYWGQGTQVTVSS[human IgG1 Fc with C220S (EU numbers) not written out],7.56
